# According to PubChem BioAssay AID488969 (Vanderbilt High Throughput Screening Facility, 2010):
# In all, about 110,000 compounds were measured (“z-score”: median about -0.1, highest 2% from about 2 on). The list shows a part of the results.
# Biological target: Metabotropic glutamate receptor 8 (Rattus norvegicus) (UniProt P70579)
# Assay: mGluR8 Gi/Go-coupled signaling modulation – cell-based, rat, thallium flux, HTS, primary screen (AID 488969)
# Settings: HEK293 rat mGluR8, GIRK (G protein-gated inwardly rectifying potassium channel) thallium flux, FluoZin2; at 10 µM; stronger effect = higher value; submaximal glutamate (EC20) added with thallium
# Chain of UniProt P70579 (P70579 whole entry, looked up): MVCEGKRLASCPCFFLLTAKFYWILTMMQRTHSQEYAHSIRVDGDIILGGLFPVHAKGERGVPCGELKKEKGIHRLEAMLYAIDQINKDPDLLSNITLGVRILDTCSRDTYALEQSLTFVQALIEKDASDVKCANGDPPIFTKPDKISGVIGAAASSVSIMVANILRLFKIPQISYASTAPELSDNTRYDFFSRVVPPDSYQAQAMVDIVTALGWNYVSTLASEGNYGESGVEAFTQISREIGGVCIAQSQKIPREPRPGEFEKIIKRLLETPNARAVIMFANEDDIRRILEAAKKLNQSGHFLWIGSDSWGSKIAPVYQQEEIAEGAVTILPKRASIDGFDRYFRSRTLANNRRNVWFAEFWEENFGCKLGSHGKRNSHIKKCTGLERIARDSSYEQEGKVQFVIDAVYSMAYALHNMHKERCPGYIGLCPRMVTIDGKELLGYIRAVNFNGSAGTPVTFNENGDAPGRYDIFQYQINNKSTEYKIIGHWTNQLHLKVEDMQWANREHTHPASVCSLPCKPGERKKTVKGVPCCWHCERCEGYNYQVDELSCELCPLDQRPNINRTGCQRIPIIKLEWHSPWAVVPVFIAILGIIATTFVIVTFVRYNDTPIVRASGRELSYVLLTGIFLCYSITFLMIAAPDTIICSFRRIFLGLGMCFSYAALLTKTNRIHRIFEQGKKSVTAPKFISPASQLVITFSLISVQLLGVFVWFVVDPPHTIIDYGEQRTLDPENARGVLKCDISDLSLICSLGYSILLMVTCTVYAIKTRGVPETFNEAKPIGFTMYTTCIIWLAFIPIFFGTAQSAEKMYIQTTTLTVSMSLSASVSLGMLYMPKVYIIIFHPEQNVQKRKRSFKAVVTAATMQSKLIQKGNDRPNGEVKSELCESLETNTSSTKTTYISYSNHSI
row,Compound,z-score
1,NS(=O)(=O)c1ccc(CCNC(=O)CSc2nc3ccsc3c(=O)n2CC(=O)O)cc1,0.0148
2,CN1CCN(C2=Cc3ccc(Cl)cc3Sc3ccc(F)cc32)CC1,-0.269
3,COc1cccc(-c2nc(N3CC(C)CC(C)C3)c3ccccc3n2)c1O (centres undefined),-0.374
4,CCn1c(SCc2nc3ccccc3c(=O)[nH]2)nnc1-c1cccnc1,-0.303
5,Cc1nn2c(-c3cccnc3)ccnc2c1-c1ccccc1,-0.182
6,COc1ccc(/C=C2/N=C(SC3CCOC3=O)N(c3cccc(OC)c3)C2=O)cc1 (centres undefined),0.147
7,Cn1nnnc1SCCNCc1ccccc1F,-0.133
8,c1cnc2c(OCc3nc4ccccc4[nH]3)cccc2c1,-1.47
9,Cc1nn(-c2ccccc2)c2c1C(=O)N(Cc1ccccc1)C(=O)C(C)(C)C2,-0.384
10,Cc1ccc(C(=O)CSc2nnc(CNc3nc(-c4ccccc4)cs3)n2C)cc1,0.0587
11,Cc1cc(NC(=O)c2cc(C(C)C)on2)no1,1.12
12,CC(C)c1nnc(NC(=O)C2c3ccccc3Oc3ccccc32)s1,0.155
13,COc1ccc2nc(C)c3c(c2c1)OC(C)C3 (centres undefined),-0.902
14,CCC(=O)Nc1cccc(C(=O)/C=C/c2cc(Br)ccc2OC)c1,0.532
15,CCCCN1CN(Cc2ccccc2)CNC1=S,1.6
16,Cc1ccc(S(=O)(=O)NNC(=O)CCC(=O)Nc2ccc(C)cc2C)cc1,0.191
17,Cc1cccnc1NC(=O)CSc1nnc(Cc2ccccc2)o1,0.255
18,O=C(NCCCCCCNC(=O)C1CCCC1)C1CCCC1,-0.0526
19,COc1ccc2c(c1)S/C(=C\C(=O)c1ccncc1)N2C,0.256
20,CCCCOC(=O)C(C#N)c1nc2ccccc2nc1N1CCN(Cc2ccc3c(c2)OCO3)CC1 (centres undefined),0.071
21,COc1ccc(NC(=O)c2c(C(F)(F)F)nn(C)c2SCc2ccccc2Cl)cc1,-0.277
22,Cc1cc(NC(=O)CSc2ccc(-c3ccccc3)nn2)no1,-1.96
23,O=C1C2C(c3ccccc3)C=CC(c3ccccc3)C2C(=O)N1CCO (centres undefined),0.0194
24,c1ccc(CNc2ncnc3nc[nH]c23)cc1,-0.172
25,COc1ccc(-n2c(=S)[nH]c3cc(C(=O)Nc4ccc(OC)c(OC)c4)ccc3c2=O)cc1,-0.144
26,O=C(NCCc1ccccc1)C1CCN(Cc2ccccc2F)CC1,0.0185
27,Cc1cccc(NC(=O)/C(C#N)=C\c2cccnc2)c1,-0.898

row,Compound,z-score
1,Cn1c(=O)c2c(nc(N3CCN(c4ccccn4)CC3)n2Cc2ccccc2Cl)n(C)c1=O,-0.115
2,Cc1ccc(S(=O)(=O)c2nc(C(C)(C)C)oc2N2CCOCC2)cc1,-0.0758
3,COCCNc1cc(NCCOC)c([N+](=O)[O-])cc1[N+](=O)[O-],-0.226
4,CC1(C)CC(=O)C(C(C2=C(O)CC(C)(C)CC2=O)c2cccs2)C(=O)C1 (centres undefined),-0.296
5,COc1cc(NC(=O)C2CC(=O)NC3=C2C(=O)CCC3)cc(OC)c1 (centres undefined),-0.00411
6,O=C(CSc1oc(-c2cccs2)nc1S(=O)(=O)c1ccc(F)cc1)NCC1CCCO1 (centres undefined),0.671
7,C=C(C)CSC1=C(C#N)C(c2ccccc2)CC(=O)N1 (centres undefined),-0.151
8,c1ccc(Cn2nnc3c(NCc4ccc5c(c4)OCO5)nc(C4CC4)nc32)cc1,0.425
9,Cc1cc(C(=O)CSc2nn(-c3ccccc3)c(=S)s2)c(C)n1Cc1ccco1,-0.146
10,Cc1oc(-c2ccc(Cl)cc2)cc1-c1nn2c(-c3ccoc3C)nnc2s1,0.661
11,O=C(/C=C/c1ccccc1Cl)N(Cc1ccc(Cl)cc1)C1CCS(=O)(=O)C1 (centres undefined),-1.55
12,Cc1cc(C)n(CC(O)Cn2c3ccccc3c3ccccc32)c(=O)n1 (centres undefined),-0.319
13,Cc1ccc(-c2csc(NC(=O)c3cccc([N+](=O)[O-])c3)n2)cc1,0.0463
14,COC(=O)c1c(NC(=O)COC(=O)c2ccccc2O)sc2c1CCCCC2,0.0662
15,Cc1nnc(-c2cccc(Br)c2)c2cn(-c3ccc(Br)cc3)nc12,-0.232
16,NC1=NC(=O)/C(=C/c2cn(CCC(=O)O)nc2-c2ccc(Cl)cc2)S1,-0.0317
17,O=C(COC(=O)c1cccc2c1C(=O)c1ccccc1C2=O)NC1CCCCC1,-0.482
18,CN(C)c1nc(OCCNC(=O)Nc2ccccc2)nc(N(C)C)n1,-1.06
19,CN(C1=C(NC(=O)c2ccc(Cl)cc2)C(=O)c2ccccc2C1=O)c1ccccc1,-0.269
20,COc1ccc2cc(C(=O)N3CCOCC3)sc(=O)c2c1OC,0.925
21,COc1ccc(N=C2S/C(=C\c3cccs3)C(=O)N2CC(C)C)cc1,0.512
22,C/C=C/COc1nc2c(c(=O)n(C)c(=O)n2C)n1C,0.642
23,CC1(C)CC2CC(C)(CN2C(=O)COC(=O)c2ccc(Cl)c(N)c2)C1 (centres undefined),-0.033
24,Cc1ccc(C(=O)c2ccccc2C(=O)OCC(=O)Nc2ccc(SC(F)F)cc2)cc1,-0.192
25,Cc1ccc(S(=O)(=O)N(C)CC(=O)N2CCOCC2)cc1,0.0545
26,C[C@H](NC(=O)Cn1cncn1)c1ccccc1,0.471
27,Cn1c(SCC(=O)N2CCN(Cc3ccccc3)CC2)nnc1-c1ccncc1,0.198
